The text below walks through data of publication PMC5719053.

Sequences of proteins named here, by UniProt entry; tags and fusion partners are left off.
UniProt O75925: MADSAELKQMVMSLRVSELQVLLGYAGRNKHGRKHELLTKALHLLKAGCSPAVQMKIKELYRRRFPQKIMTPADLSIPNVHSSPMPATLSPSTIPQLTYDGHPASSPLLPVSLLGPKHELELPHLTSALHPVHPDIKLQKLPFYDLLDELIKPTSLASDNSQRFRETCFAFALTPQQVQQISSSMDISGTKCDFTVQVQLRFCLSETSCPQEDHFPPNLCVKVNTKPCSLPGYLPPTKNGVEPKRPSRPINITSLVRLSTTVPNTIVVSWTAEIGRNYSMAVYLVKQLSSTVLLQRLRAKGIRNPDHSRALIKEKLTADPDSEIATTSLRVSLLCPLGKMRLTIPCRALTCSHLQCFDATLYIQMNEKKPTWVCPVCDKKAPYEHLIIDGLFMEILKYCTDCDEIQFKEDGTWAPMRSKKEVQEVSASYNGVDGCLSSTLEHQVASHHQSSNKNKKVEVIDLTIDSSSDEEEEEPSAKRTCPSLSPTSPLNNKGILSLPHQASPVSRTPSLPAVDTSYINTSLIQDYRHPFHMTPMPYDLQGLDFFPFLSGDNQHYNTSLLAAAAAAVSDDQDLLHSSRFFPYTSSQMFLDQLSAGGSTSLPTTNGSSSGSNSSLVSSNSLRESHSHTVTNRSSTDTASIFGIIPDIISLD
UniProt O75928: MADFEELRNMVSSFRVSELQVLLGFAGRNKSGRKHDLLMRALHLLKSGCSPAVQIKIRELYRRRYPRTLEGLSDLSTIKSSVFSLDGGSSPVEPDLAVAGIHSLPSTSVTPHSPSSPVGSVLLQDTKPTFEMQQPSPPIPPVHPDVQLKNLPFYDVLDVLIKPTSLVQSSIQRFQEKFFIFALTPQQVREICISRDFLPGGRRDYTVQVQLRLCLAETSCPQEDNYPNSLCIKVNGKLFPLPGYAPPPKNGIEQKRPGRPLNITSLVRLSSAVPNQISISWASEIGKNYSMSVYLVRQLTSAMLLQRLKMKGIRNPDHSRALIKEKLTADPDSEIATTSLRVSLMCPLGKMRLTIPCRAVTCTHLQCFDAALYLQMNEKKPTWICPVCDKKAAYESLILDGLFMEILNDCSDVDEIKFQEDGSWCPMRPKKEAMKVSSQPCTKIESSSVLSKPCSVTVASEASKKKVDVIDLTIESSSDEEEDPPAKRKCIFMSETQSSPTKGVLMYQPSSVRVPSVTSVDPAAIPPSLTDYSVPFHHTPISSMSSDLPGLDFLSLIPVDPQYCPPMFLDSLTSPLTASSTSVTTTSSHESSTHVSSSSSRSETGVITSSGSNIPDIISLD
UniProt Q8IUC6: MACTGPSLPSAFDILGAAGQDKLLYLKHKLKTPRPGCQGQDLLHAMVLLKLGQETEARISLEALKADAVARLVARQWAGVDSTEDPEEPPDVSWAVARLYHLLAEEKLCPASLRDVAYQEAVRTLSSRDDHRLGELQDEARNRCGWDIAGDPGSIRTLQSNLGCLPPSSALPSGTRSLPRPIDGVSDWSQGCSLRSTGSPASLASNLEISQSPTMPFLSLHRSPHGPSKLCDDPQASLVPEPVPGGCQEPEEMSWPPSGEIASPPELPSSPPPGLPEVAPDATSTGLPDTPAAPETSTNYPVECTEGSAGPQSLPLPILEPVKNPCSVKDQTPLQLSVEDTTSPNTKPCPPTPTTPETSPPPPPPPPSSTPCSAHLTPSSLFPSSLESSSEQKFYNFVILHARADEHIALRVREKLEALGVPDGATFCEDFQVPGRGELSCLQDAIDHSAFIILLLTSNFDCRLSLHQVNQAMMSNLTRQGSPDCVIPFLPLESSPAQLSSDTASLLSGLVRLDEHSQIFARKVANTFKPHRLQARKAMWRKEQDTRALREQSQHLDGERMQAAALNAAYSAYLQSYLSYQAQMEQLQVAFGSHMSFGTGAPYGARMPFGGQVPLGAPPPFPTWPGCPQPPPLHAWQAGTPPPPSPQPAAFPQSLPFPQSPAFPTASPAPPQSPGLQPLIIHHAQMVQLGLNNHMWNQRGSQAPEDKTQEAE
UniProt Q99836: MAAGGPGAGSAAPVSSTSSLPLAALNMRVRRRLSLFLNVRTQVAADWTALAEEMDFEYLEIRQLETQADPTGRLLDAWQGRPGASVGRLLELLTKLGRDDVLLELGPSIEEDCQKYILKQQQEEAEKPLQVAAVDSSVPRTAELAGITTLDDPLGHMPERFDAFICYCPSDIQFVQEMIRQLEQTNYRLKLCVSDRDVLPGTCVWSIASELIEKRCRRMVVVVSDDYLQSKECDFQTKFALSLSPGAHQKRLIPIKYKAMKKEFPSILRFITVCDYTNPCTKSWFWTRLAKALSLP
UniProt Q04206: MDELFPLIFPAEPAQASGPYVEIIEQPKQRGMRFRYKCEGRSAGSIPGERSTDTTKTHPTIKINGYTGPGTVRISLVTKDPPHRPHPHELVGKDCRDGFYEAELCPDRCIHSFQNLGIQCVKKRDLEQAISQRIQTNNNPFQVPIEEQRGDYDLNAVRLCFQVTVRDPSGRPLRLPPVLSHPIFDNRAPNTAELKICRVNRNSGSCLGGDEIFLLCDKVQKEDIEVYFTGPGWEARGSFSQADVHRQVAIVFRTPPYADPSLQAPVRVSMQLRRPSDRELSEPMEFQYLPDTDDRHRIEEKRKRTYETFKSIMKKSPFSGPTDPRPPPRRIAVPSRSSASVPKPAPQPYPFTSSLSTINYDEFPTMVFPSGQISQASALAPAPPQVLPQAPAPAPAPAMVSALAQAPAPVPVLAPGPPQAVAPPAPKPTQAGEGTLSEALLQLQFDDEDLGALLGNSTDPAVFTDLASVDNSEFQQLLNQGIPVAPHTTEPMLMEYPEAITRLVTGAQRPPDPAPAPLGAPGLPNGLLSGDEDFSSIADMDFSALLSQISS

Experiment in all cases: co-IP; HEK293T cells co-transfected with the tagged expression plasmids; whole-cell extracts in 50 mM Tris pH 7.4, 150 mM NaCl, 1% Nonidet P-40, 0.5% deoxycholate; primary antibody at 4 °C overnight, Protein G Sepharose 4-6 h; western blot with anti-tag mAbs (for bPIAS with bRel: precipitated with anti-Flag, blotted with anti-HA)
For assay [1], the target named is human PIAS1, full length, Myc-tagged (human) (UniProt O75925).
Assay [2] has as its target human PIAS2, full length, Myc-tagged (human) (UniProt O75928).
For assay [3], the target named is T1, human PIAS3, full length, Myc-tagged (human) (UniProt Q9Y6X2).
T1 sequence: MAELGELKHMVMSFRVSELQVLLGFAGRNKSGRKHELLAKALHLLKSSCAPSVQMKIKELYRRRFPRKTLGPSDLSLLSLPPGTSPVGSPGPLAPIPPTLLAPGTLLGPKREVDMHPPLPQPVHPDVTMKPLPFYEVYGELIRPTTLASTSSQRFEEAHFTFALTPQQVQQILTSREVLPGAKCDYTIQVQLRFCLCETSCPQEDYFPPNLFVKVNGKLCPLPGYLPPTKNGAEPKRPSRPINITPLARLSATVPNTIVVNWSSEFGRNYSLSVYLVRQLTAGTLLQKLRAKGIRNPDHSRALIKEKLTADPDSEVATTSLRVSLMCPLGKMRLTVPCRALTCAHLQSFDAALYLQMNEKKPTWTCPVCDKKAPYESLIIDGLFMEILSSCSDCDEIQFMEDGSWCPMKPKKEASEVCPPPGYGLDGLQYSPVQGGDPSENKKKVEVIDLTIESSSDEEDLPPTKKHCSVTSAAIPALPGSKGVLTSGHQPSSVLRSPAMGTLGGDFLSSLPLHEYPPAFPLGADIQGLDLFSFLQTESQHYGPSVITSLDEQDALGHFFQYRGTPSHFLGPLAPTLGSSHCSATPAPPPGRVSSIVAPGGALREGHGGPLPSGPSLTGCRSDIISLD

Assay [4] deals with T2, human PIAS4, full length, Myc-tagged (human) (UniProt Q8N2W9).
T2 sequence: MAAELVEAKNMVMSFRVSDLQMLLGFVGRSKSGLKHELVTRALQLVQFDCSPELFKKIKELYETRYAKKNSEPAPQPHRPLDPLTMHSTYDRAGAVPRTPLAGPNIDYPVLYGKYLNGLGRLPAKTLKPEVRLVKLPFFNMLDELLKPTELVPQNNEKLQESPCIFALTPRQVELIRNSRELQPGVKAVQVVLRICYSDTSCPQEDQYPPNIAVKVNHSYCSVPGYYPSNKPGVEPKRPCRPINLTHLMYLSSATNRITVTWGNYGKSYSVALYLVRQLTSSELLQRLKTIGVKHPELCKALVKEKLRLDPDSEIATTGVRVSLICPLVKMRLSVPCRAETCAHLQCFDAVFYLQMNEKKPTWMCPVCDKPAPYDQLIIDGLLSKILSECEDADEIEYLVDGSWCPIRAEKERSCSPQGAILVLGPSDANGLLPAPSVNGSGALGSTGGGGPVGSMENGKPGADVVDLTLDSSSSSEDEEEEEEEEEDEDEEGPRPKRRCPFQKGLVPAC

No constants are given. Whether binding was seen depends on the method and setting. Binding seen in cells or lysates may run through a third protein. Some entries that bind do so weakly or less than the wild type. For part of these data: Sequences can lack the tags named with a protein.

On to “human TRIF (TICAM-1), full length, Flag-tagged (from UniProt Q8IUC6 1-712)”, for which the binding entry in assay [1] was “binds”; in assay [2], “no binding”; in assay [3], “binds”; in assay [4], “binds”.
In the case of “human MyD88, full length, Flag-tagged (from UniProt Q99836 1-296)”, the binding result is given as “binds” in assay [1], “no binding” in assay [2], “binds” in assay [3] and “binds” in assay [4].
For the substance “human NF-κB p65, full length, Flag-tagged (from UniProt Q04206 1-551)”, the binding result in assay [3] was “binds”.
